Experimental data reported in PubChem BioAssay AID488969 (Vanderbilt High Throughput Screening Facility, 2010).
The full ranking holds about 110,000 compounds; the median of “z-score” is about -0.1, and the highest 2% start at about 2. Some of the results follow. The source made the active and inactive calls.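 How the source made its calls: active means z-score in the third read window above 3 or below -3; inactive means the rest.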

What follows are molecules tested against Metabotropic glutamate receptor 8 (Rattus norvegicus) (UniProt P70579) (assay: mGluR8 Gi/Go-coupled signaling modulation – cell-based, rat, thallium flux, HTS, primary screen (AID 488969)). Details: HEK293 rat mGluR8, GIRK (G protein-gated inwardly rectifying potassium channel) thallium flux, FluoZin2; at 10 µM; stronger effect = higher value; submaximal glutamate (EC20) added with thallium.
Chain of UniProt P70579 (P70579 whole entry, looked up): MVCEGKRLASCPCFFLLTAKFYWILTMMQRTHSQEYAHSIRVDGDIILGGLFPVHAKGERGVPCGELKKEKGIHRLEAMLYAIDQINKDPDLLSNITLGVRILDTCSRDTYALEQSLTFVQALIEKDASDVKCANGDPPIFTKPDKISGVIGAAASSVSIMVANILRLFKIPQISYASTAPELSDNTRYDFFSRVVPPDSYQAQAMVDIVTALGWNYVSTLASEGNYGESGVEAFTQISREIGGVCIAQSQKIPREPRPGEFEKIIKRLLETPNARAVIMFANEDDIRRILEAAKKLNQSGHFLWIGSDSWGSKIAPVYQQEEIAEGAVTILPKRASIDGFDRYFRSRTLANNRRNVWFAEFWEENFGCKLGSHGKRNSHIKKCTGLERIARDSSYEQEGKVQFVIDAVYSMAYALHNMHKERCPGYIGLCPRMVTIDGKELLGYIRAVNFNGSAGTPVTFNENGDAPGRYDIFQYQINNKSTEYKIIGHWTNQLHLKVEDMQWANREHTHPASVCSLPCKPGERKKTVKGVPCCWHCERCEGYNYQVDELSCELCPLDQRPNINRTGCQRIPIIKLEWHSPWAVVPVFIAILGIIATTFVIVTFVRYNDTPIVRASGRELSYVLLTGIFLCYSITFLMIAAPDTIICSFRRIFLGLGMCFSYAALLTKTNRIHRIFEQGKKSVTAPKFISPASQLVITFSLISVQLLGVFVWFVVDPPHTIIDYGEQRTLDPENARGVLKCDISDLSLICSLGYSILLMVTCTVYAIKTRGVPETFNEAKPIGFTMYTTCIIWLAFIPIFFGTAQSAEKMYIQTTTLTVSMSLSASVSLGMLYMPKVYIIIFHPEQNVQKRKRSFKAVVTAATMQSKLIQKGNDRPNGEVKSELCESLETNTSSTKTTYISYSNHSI

Row | Structure (SMILES) | z-score
1 | CC1CCN(C2=NC(=O)/C(=C/c3cn[nH]c3-c3ccccc3)S2)CC1 | 0.356
2 | O=C(NCC1CCCO1)Nc1ccccc1 (stereo not given) | -0.264
3 | Cc1ccccc1OCC(=O)Nc1ccc(Cc2ccncc2)cc1 | -0.331
4 | O=C(Nc1ccc(F)cc1)c1cccnc1N1CCOCC1 | 1.11
5 | COc1cc(OC)cc(C(=O)NC2CCN(CC(=O)Nc3cccc4ccccc34)CC2)c1 | -0.467
6 | Cc1ccc(NC(=S)NCc2ccc3c(c2)OCO3)c(C)c1 | -0.105
7 | Cc1ccc(S(=O)(=O)N2CCOCC2)cc1C(=O)N1C(=O)c2cccc(N)c2C1=O | -0.279
8 | CCOc1cc(C(=O)N2CCOCC2)ccc1OCc1ccccc1 | -0.298
9 | Cc1ccc2c(N)c(C(=O)N(c3ccccc3)c3ccccc3)sc2n1 | -0.28
10 | CC(C)(C)c1ccc(COC(=O)Nc2ccc(F)cc2)cc1 | -0.203
11 | COc1cc2cc(CN(CCO)C(=O)c3cccs3)c(=O)[nH]c2cc1OC | -0.168
12 | CCOC(=O)CN1C(=O)C(O)(CC(=O)c2cccc(OC)c2)c2ccccc21 (stereo not given) | 0.641
13 | COCn1c(-c2ccc(OC)cc2)nc2ccccc21 | -0.0802
14 | Cn1c(CSCc2ccc(Cl)cc2)nnc1SCC(=O)Nc1nc2ccccc2s1 | 0.543
15 | Cc1cc(C)cc(NCCC#N)c1 | 0.0563
16 | Nc1nnnn1/N=C/c1ccccn1 | -0.0914
17 | CCC(c1nnc(SCCNCCO)n1CCN1CCOCC1)N(C)C (stereo not given) | -0.0687
18 | Cc1ccc(CNC(=O)C2CCCN(Cc3cnn(-c4ccccc4)c3-n3cccc3)C2)cc1 (stereo not given) | 0.263
19 | CC(C)OC(=O)CSc1nnc(-c2ccco2)n1N | 0.134
20 | Cc1cc(C)n(-c2cc(N3CCN(S(=O)(=O)c4ccc5ccccc5c4)CC3)ccc2[N+](=O)[O-])n1 | -0.296
21 | CN(Cc1ccccc1)C(=O)CCc1ccccc1 | -0.144
22 | CCS(=O)(=O)Nc1ccc(-c2cc(-c3ccccc3)c3cc(C)ccc3n2)cc1 | -0.14

Row | Structure (SMILES) | z-score
23 | Cc1cccc(NC2=C(Cl)C(=O)OC2NC(=O)c2ccccc2)c1 (stereo not given) | -0.108
24 | c1ccc(-c2nc(CSc3n[nH]c(-c4cccs4)n3)cs2)cc1 | 0.259
25 | Cc1ccc(-c2nnn(CC(=O)N(c3ccccc3)C(C(=O)NCC3CCCO3)c3ccc(Cl)cc3)n2)cc1 (stereo not given) | -0.203
26 | CC(CN(C)Cc1ccccc1)OC(=O)c1cccc(F)c1 (stereo not given) | -0.189
27 | CCOc1ccc(C(=O)Nc2ccc(-c3nc4ccccc4[nH]3)cc2)cc1[N+](=O)[O-] | -0.0953
28 | Nc1cc(=O)[nH]c(SCC(=O)N2CCCc3ccccc32)n1 | -0.0699
29 | CCOC(=O)c1ccc(N2CCN(c3ccccc3F)CC2)c(NC(=O)Nc2ccccc2)c1 | -0.0534
30 | NC(=O)COC(=O)CC(NC(N)=O)c1ccc(Cl)cc1 (stereo not given) | 0.0124
31 | CCCOc1ccc2c3c(c(=O)oc2c1)CCCC3 | -0.349
32 | CC(=O)NCN1CCN(CNC(C)=O)CC1 | -0.549
33 | COc1cccc(C(=O)Nc2ccc(F)c(F)c2F)c1 | -0.113
34 | CC(C)COc1ccc2[nH]c3c(c2c1)CCCC3=O | -0.601
35 | O=C(N/N=C/c1c(O)ccc2ccccc12)c1cccc(C(F)(F)F)c1 | -0.0953
36 | O=C(c1ccc2c(=O)n(-c3ccccc3)c(=O)[nH]c2c1)N1CCN(c2ccc(F)cc2)CC1 | -0.782
37 | Fc1ccc(OCc2nnc(SCCN3CCOCC3)o2)cc1 | 0.319
38 | CCCCC1OC23CCCCC2C(C#N)(C(=N)O3)C1(C#N)C#N (stereo not given) | -0.383
39 | Cc1ccc(/C=[N+](/[O-])C2SC(=S)N(C)C2(C)C)cc1 (stereo not given) | -0.232
40 | CC(=NCc1cccnc1)C1=C(O)c2ccccc2C1=O | -0.77
41 | Cc1ncsc1CCSc1n[nH]c(=O)n1-c1ccccc1 | -0.0267
42 | Cc1ccc(CNC(=O)Cn2c([N+](=O)[O-])cnc2C)cc1 | 0.0993
43 | O=C(COc1ncnc2ccccc12)N1CCN(S(=O)(=O)c2ccccc2)CC1 | 0.475
44 | CCCCNc1ccc(S(N)(=O)=O)cc1[N+](=O)[O-] | -0.177

Row | Structure (SMILES) | z-score
45 | O=C(Cc1cccs1)N1CCN(C(=O)C2CCCO2)CC1 (stereo not given) | 0.349
46 | Cn1c(COc2nnc(-c3ccc(Cl)cc3)c3ccccc23)nc2ccccc21 | -0.0923
47 | O=C(NCc1ccco1)c1ccc2c(c1)C(=O)N(Cc1ccccc1)C2=O | -0.715
48 | O=C(Cn1nc(C(F)(F)F)c2c1CCC2)N1CCN(c2ccccc2)CC1 | -0.164
49 | COc1ccc(/C=N/NC(=O)c2nc(-c3ccccc3)cc(-c3ccccc3)n2)cc1 | active: 8.06
50 | Cc1ccc(OCCCC(=O)NCc2ccco2)cc1 | -0.00785
51 | CCc1ccc(NC2=NC(C(=O)NC3CCCCC3)CC(=O)N2)cc1 (stereo not given) | 0.68
52 | CCN1CCN(C(=S)c2ccc(OCC(=O)Nc3ccc(OC)cc3)cc2)CC1 | -0.115
53 | CCN1C(=O)/C(=C2/C(=O)N3c4c(cc(OC(C)=O)cc42)C(C)=CC3(C)C)SC1=S | -0.169
54 | O=P(O)(CCc1ccccc1)CN1CCCCC1 | 0.373
55 | Cc1ccc(N(C(=O)c2csnn2)C(C(=O)NC(C)(C)C)c2ccncc2)cc1 (stereo not given) | -0.134
56 | CCOC(=O)Nc1sc(NS(=O)(=O)c2ccc(C)cc2)nc1C | -0.424
57 | COCc1cc(C)c2c(N)c(C#N)sc2n1 | 0.336
58 | CCn1c(CCNC(=O)c2cccs2)nnc1SCC(=O)Nc1cccc(Cl)c1 | -0.277
59 | Cc1cc2c(=O)n(CC(=O)N3CCN(c4ccccc4)CC3)cnc2s1 | -0.539
60 | COc1ccc(OC)c2sc(NC(=O)CCS(=O)(=O)c3ccccc3)nc12 | -0.271
61 | COc1ccc(NC(=O)C2CC(=O)OC2(C)C)cc1 (stereo not given) | -0.102
62 | O=P(c1ccccc1)(c1ccccc1)N(c1ccccc1)c1ccccc1 | -0.752
63 | C/C(=N\Nc1nc(-c2ccccc2)cs1)c1cccs1 | -0.355
64 | COc1ccc(OC)c(NC(=O)CCN2CCC(C)CC2)c1 | -0.2
65 | O=C(CCS(=O)(=O)c1cccs1)N1CCCC1 | 0.157
66 | N#Cc1c(NC(=O)CSc2ncc(-c3ccccc3)n2CC2CCCO2)sc2c1CCCC2 (stereo not given) | 0.288

Row | Structure (SMILES) | z-score
67 | Cc1ccccc1C(=O)NNC(=S)NC(=O)COc1ccccc1 | active: 4.25
68 | O=C(c1ccccc1Nc1ccc(SC(F)F)cc1)N1CCCCC1 | -0.0659
69 | CC1CCN(S(=O)(=O)c2ccc(S(=O)(=O)NCc3ccccc3)cc2)CC1 | 0.689
70 | Cc1ccc(S(=O)(=O)/N=C(\Nc2cccc(C)c2)Nc2nc(C)cc(C)n2)cc1 | 0.627
71 | COc1ccc(CN(C(=O)c2ccc(-c3ccccc3)[nH]2)C(C(=O)NCC2CCCO2)c2ccc(C)o2)cc1 (stereo not given) | -0.244
72 | O=C(O)CCCC(=O)N1CCN(c2nc(-c3ccccc3)c3ccccc3n2)CC1 | -1.23
73 | CN(C)C(=O)N1CCC(C(=O)NCC2CCCO2)CC1 (stereo not given) | 0.123
74 | Cc1cc(=O)oc2cc(NC(=O)CCCC(=O)O)ccc12 | -0.358
75 | CC1(C)NC(=O)N(CCOCCSc2ccccc2)C1=O | 0.626
76 | CC(C)(C)NC(=O)CN(C(=O)Cn1nnc(-c2ccccc2F)n1)c1cccc2c1CCCC2 | -0.408
77 | Cc1cc(C)nc(NS(=O)(=O)c2ccc(Br)s2)c1 | 0.0301
78 | COCCN1C(=O)/C(=C/c2ccc(Oc3ccc([N+](=O)[O-])cn3)c(OC)c2)SC1=Nc1ccccc1 | 0.27
79 | Cc1ccc(N2C(=O)c3ccccc3C2Nc2ccc(S(=O)(=O)N3CCCCC3)cc2)nc1 (stereo not given) | -0.176
80 | COc1ccc(-n2nnnc2SCC(=O)NNC(=O)c2ccc([N+](=O)[O-])cc2)cc1 | 0.425
81 | Cc1nc(CCNC(=O)c2cccs2)cs1 | 0.207
82 | O=C(COC(=O)C12CC3CC(CC(C3)C1)C2)N1CCN(S(=O)(=O)c2ccccc2)CC1 | -0.0502
83 | COC(=O)C(O)(CC(=O)c1ccc(OC)cc1)C(F)(F)F (stereo not given) | -0.345
84 | CCOc1ccc(Oc2nc(NCC(C)C)nc(N(C)C)n2)nn1 | -0.0925
85 | CC(=O)c1nn(-c2cccc(Br)c2)cc1C(=O)c1cccc2ccccc12 | -0.0218
86 | Cc1nccc(-c2ccc(-n3cnc4ccccc43)cc2)n1 | -0.679
87 | CS(=O)(=O)Nc1cccc(C2=NN(S(=O)(=O)c3ccccc3)C(c3cccs3)C2)c1 (stereo not given) | -0.213
88 | CCCC(=O)Nc1nnc(COC)s1 | 0.217

Row | Structure (SMILES) | z-score
89 | Cc1ccccc1C(=O)c1c[nH]c(C(=O)NCC2CCCO2)c1 (stereo not given) | -0.213
90 | O=S(=O)(c1ccccc1Cl)N1CCCC1c1nc(-c2cccc(Cl)c2)no1 (stereo not given) | 0.278
91 | O=C1CCCN1c1ccc(S(=O)(=O)NCc2ccco2)cc1 | 0.189
92 | COc1ccc(CCNC(=O)C/C(C)=N/NC(=O)C23CC4CC(CC(C4)C2)C3)cc1OC | -0.347
93 | CCC(C(=O)NC(C)(C)C)N(C(=O)Cn1nnc(-c2ccccc2F)n1)c1cccc2c1CCCC2 (stereo not given) | 0.779
94 | COc1ccc(NC(=S)N2CCCC2)cc1 | -0.0997
95 | O=C(OCn1nnc2ccccc2c1=O)c1ccc(Br)o1 | -0.128
96 | CNNC(=O)C(C)NC(=O)c1ccc(Br)cc1 (stereo not given) | 0.0699
97 | CCC1C(=O)n2nc(-c3ccccc3)cc2N=C1C (stereo not given) | 0.252
98 | Cn1cccc1Cc1nnc(SCC(=O)NCc2ccccc2)n1-c1ccc(F)cc1 | -0.102
99 | Cc1nc2ccccc2c2c1C(=O)N(C)C2=O | -0.142
100 | CC1CN(S(=O)(=O)c2ccc(C(=O)NN3CCN(C)CC3)cc2)CC(C)O1 (stereo not given) | -0.181
101 | O=C(Nc1cccc2cccnc12)c1cccnc1 | 0.172
102 | Cc1ccc(C(=O)Oc2ccccc2N2C(=O)C3CCCCC3C2=O)cc1 (stereo not given) | -0.0226
103 | Cc1c(C(=O)Nc2ccccc2)cn2c(nc3ccccc32)c1C#N | -0.348
104 | Cc1cc(C)c(NC(=O)C2CCCN2CCOC(=O)c2cccc([N+](=O)[O-])c2)c(C)c1 (stereo not given) | 0.189
105 | Cc1cc(C)cc(Oc2ccccc2/C=N\O)c1 | -0.125
106 | COc1cccc(CC(NC(C)=O)C(=O)NC2CCN(c3nc(C)cc(C)c3C#N)CC2)c1OC (stereo not given) | -0.0194
107 | C/C(=N\N=C(N)N)c1cccc([N+](=O)[O-])c1 | 0.671
108 | CC[n+]1c(/C=C2/C=C(C)CC(C)(C)C2)sc2ccc(OC)cc21 | 0.704
109 | COC(=O)c1ccc(C2/C(=C(/O)c3ccc(OC)cc3)C(=O)C(=O)N2Cc2ccco2)cc1 (stereo not given) | -0.382
110 | CC(O)CNCc1cccc2ccccc12 (stereo not given) | 0.213
